Changes are numbered by the printed parent chain; changes in the protein carry UniProt numbers. The list shows a part of the results.
B1: ACAUCAG (DNA:RNA)
RNA: GGGAGACCGGAAUUCAGAUUGUCCACAUCAGUUAAAUCCCGUCGUAGCCACCA
DNA 1: CAATCTGAATTCCGGTCTCCC
DNA 2: TGGTGGCTACGACGGGATT
B2: CGUAUAC (DNA:RNA)
RNA: B1 RNA with A25C, C26G, A27U, U28A, C29U, G31C
DNA 1: CAATCTGAATTCCGGTCTCCC
DNA 2: TGGTGGCTACGACGGGATT
B3: AUUUAAG (DNA:RNA)
RNA: B1 RNA with C26U, A27U, C29A
DNA 1: CAATCTGAATTCCGGTCTCCC
DNA 2: TGGTGGCTACGACGGGATT
B4: GAGAUGG (DNA:RNA)
RNA: B1 RNA with A25G, C26A, A27G, U28A, C29U, A30G
DNA 1: CAATCTGAATTCCGGTCTCCC
DNA 2: TGGTGGCTACGACGGGATT
B5: UUGCGGU (DNA:RNA)
RNA: GGGAGACCGGAAUUCAGAUUGUCCUUGCGGUUUAAAUCCCGUCGUAGCCACCA
DNA 1: CAATCTGAATTCCGGTCTCCC
DNA 2: TGGTGGCTACGACGGGATT
B6: AGGUCGU (DNA:RNA)
RNA: B1 RNA with C26G, A27G, A30G, G31U
DNA 1: CAATCTGAATTCCGGTCTCCC
DNA 2: TGGTGGCTACGACGGGATT
B7: GUGCAUA (DNA:RNA)
RNA: B5 RNA with U25G, G29A, G30U, U31A
DNA 1: CAATCTGAATTCCGGTCTCCC
DNA 2: TGGTGGCTACGACGGGATT
B8: GUACCGA (DNA:RNA)
RNA: B5 RNA with U25G, G27A, G29C, U31A
DNA 1: CAATCTGAATTCCGGTCTCCC
DNA 2: TGGTGGCTACGACGGGATT
B9: CUAAAAG (DNA:RNA)
RNA: B1 RNA with A25C, C26U, U28A, C29A
DNA 1: CAATCTGAATTCCGGTCTCCC
DNA 2: TGGTGGCTACGACGGGATT
B10: ACGGAAA (DNA:RNA)
RNA: B1 RNA with A27G, U28G, C29A, G31A
DNA 1: CAATCTGAATTCCGGTCTCCC
DNA 2: TGGTGGCTACGACGGGATT
B11: AUUAGCA (DNA:RNA)
RNA: B5 RNA with U25A, G27U, C28A, G30C, U31A
DNA 1: CAATCTGAATTCCGGTCTCCC
DNA 2: TGGTGGCTACGACGGGATT
B12: UCCAGAC (DNA:RNA)
RNA: B1 RNA with A25U, A27C, U28A, C29G, G31C
DNA 1: CAATCTGAATTCCGGTCTCCC
DNA 2: TGGTGGCTACGACGGGATT
B13: ACUCAGG (DNA:RNA)
RNA: B1 RNA with A27U, U28C, C29A, A30G
DNA 1: CAATCTGAATTCCGGTCTCCC
DNA 2: TGGTGGCTACGACGGGATT
B14: GUUCACU (DNA:RNA)
RNA: B5 RNA with U25G, G27U, G29A, G30C
DNA 1: CAATCTGAATTCCGGTCTCCC
DNA 2: TGGTGGCTACGACGGGATT
B15: CGAUGCG (DNA:RNA)
RNA: B1 RNA with A25C, C26G, C29G, A30C
DNA 1: CAATCTGAATTCCGGTCTCCC
DNA 2: TGGTGGCTACGACGGGATT
B16: ACAGGGU (DNA:RNA)
RNA: B1 RNA with U28G, C29G, A30G, G31U
DNA 1: CAATCTGAATTCCGGTCTCCC
DNA 2: TGGTGGCTACGACGGGATT
B17: CGUCAUC (DNA:RNA)
RNA: B5 RNA with U25C, U26G, G27U, G29A, G30U, U31C
DNA 1: CAATCTGAATTCCGGTCTCCC
DNA 2: TGGTGGCTACGACGGGATT
B18: AAGCACG (DNA:RNA)
RNA: B1 RNA with C26A, A27G, U28C, C29A, A30C
DNA 1: CAATCTGAATTCCGGTCTCCC
DNA 2: TGGTGGCTACGACGGGATT
B19: CAGAUGU (DNA:RNA)
RNA: B5 RNA with U25C, U26A, C28A, G29U
DNA 1: CAATCTGAATTCCGGTCTCCC
DNA 2: TGGTGGCTACGACGGGATT
B20: GUCGUAC (DNA:RNA)
RNA: B1 RNA with A25G, C26U, A27C, U28G, C29U, G31C
DNA 1: CAATCTGAATTCCGGTCTCCC
DNA 2: TGGTGGCTACGACGGGATT
B21: ACAUAGU (DNA:RNA)
RNA: B1 RNA with C29A, A30G, G31U
DNA 1: CAATCTGAATTCCGGTCTCCC
DNA 2: TGGTGGCTACGACGGGATT
B22: UUAUUAC (DNA:RNA)
RNA: B1 RNA with A25U, C26U, C29U, G31C
DNA 1: CAATCTGAATTCCGGTCTCCC
DNA 2: TGGTGGCTACGACGGGATT
B23: CACGUUU (DNA:RNA)
RNA: B5 RNA with U25C, U26A, G27C, C28G, G29U, G30U
DNA 1: CAATCTGAATTCCGGTCTCCC
DNA 2: TGGTGGCTACGACGGGATT
B24: UUCUAGU (DNA:RNA)
RNA: B5 RNA with G27C, C28U, G29A
DNA 1: CAATCTGAATTCCGGTCTCCC
DNA 2: TGGTGGCTACGACGGGATT
B25: AGUCAAC (DNA:RNA)
RNA: B1 RNA with C26G, A27U, U28C, C29A, G31C
DNA 1: CAATCTGAATTCCGGTCTCCC
DNA 2: TGGTGGCTACGACGGGATT
B26: CCUCUCA (DNA:RNA)
RNA: B1 RNA with A25C, A27U, U28C, C29U, A30C, G31A
DNA 1: CAATCTGAATTCCGGTCTCCC
DNA 2: TGGTGGCTACGACGGGATT
B27: CGGAACG (DNA:RNA)
RNA: B1 RNA with A25C, C26G, A27G, U28A, C29A, A30C
DNA 1: CAATCTGAATTCCGGTCTCCC
DNA 2: TGGTGGCTACGACGGGATT
B28: CGACCUG (DNA:RNA)
RNA: B1 RNA with A25C, C26G, U28C, A30U
DNA 1: CAATCTGAATTCCGGTCTCCC
DNA 2: TGGTGGCTACGACGGGATT
B29: CUGGGAG (DNA:RNA)
RNA: B5 RNA with U25C, C28G, G30A, U31G
DNA 1: CAATCTGAATTCCGGTCTCCC
DNA 2: TGGTGGCTACGACGGGATT
B30: GCUUCGU (DNA:RNA)
RNA: B1 RNA with A25G, A27U, A30G, G31U
DNA 1: CAATCTGAATTCCGGTCTCCC
DNA 2: TGGTGGCTACGACGGGATT
B31: CUGACGA (DNA:RNA)
RNA: B5 RNA with U25C, C28A, G29C, U31A
DNA 1: CAATCTGAATTCCGGTCTCCC
DNA 2: TGGTGGCTACGACGGGATT

Biological target: T1, RBFOX1 RRM (Homo sapiens, UniProt Q9NWB1 109-208)
T1 sequence: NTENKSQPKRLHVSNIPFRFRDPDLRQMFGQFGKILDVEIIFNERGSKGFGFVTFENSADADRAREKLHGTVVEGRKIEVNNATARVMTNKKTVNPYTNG
Assay: EMSA; HiTS-Eq, 1 nM pool, 10 min; buffer printed only for the single-RNA assays: 10 mM Tris pH 7.5, 150 mM NaCl, 3.4 mM EDTA, 0.001% NP-40, 30 C
Conditions: tags: His6 N-terminal (pET28a); label: 5' 32P
Outline: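 Purified RbFox RRM (wild type or mutant) was equilibrated for 10 min in 50 µL with 1 nM of a 5′-radiolabelled pool of RNA with 7 randomized nucleotides, its flanks annealed to DNA oligonucleotides, across increasing protein concentrations. Free RNA was separated by 8% native PAGE, excised, reverse-transcribed, PCR-barcoded and sequenced on an Illumina HiSeq 2500. Relative association constants came from read-count changes of each variant against the control reaction, normalised to the cognate motif.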

| Binder | binding signal |
| --- | --- |
| B1 | 0.0039 KA relative to UGCAUGU |
| B2 | 0.0029 KA relative to UGCAUGU |
| B3 | 0.00529 KA relative to UGCAUGU |
| B4 | 0.0193 KA relative to UGCAUGU |
| B5 | 0.0146 KA relative to UGCAUGU |
| B6 | 0.0128 KA relative to UGCAUGU |
| B7 | 0.0221 KA relative to UGCAUGU |
| B8 | 0.0128 KA relative to UGCAUGU |
| B9 | 0.00566 KA relative to UGCAUGU |
| B10 | 0.00549 KA relative to UGCAUGU |
| B11 | 0.00729 KA relative to UGCAUGU |
| B12 | 0.00816 KA relative to UGCAUGU |
| B13 | 0.00674 KA relative to UGCAUGU |
| B14 | 0.00902 KA relative to UGCAUGU |
| B15 | 0.017 KA relative to UGCAUGU |
| B16 | 0.0107 KA relative to UGCAUGU |

| Binder | binding signal |
| --- | --- |
| B17 | 0.00595 KA relative to UGCAUGU |
| B18 | 0.0333 KA relative to UGCAUGU |
| B19 | 0.00845 KA relative to UGCAUGU |
| B20 | 0.0102 KA relative to UGCAUGU |
| B21 | 0.00187 KA relative to UGCAUGU |
| B22 | 0.00462 KA relative to UGCAUGU |
| B23 | 0.00574 KA relative to UGCAUGU |
| B24 | 0.00949 KA relative to UGCAUGU |
| B25 | 0.00444 KA relative to UGCAUGU |
| B26 | 0.00314 KA relative to UGCAUGU |
| B27 | 0.0344 KA relative to UGCAUGU |
| B28 | 0.00886 KA relative to UGCAUGU |
| B29 | 0.0142 KA relative to UGCAUGU |
| B30 | 0.0175 KA relative to UGCAUGU |
| B31 | 0.0142 KA relative to UGCAUGU |

Source: publication PMC9911399, “Two distinct binding modes provide the RNA-binding protein RbFox with extraordinary sequence specificity”
